In all, about 390,000 compounds went through this assay and about 2,200 (0.56%) were called active. This list was built around the results that the source calls inconclusive (neither active nor inactive); the mix of calls is not that of the screen. The call rests on the fitted dose curve; in most records, active means well fitted inhibition curve with a large enough effect; inconclusive means small, poorly fitted or top-dose-only effect; inactive means no such curve, though single readings can be large or run the other way. Potencies of inconclusive entries are doubtful fits and often do not repeat.
Each compound was assayed against Chromobox protein homolog 1 (Homo sapiens) (UniProt P83916) (assay: HTS for Inhibitors of HP1-beta Chromodomain Interactions with Methylated Histone Tails). Settings: AlphaScreen HP1-beta / biotin-H3K9me3 peptide binding; series mostly up to 114 µM; activity change, negative = inhibition: at the top concentration.
Method in brief: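 Compound inhibition of the preformed complex between 50 nM HP1-beta and 50 nM biotinylated H3K9me3 peptide was read by AlphaScreen. Buffer was PBS pH 7.4 with 0.01% Tween-20. Incubations ran 30 min at room temperature, with 10 ug/mL donor/acceptor beads.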
Further: nearly all actives have a fitted effect of over 70% in size.
Potency means the concentration at half of the fitted maximal effect; tags describe the fitted curve by direction and shape.

Chain of UniProt P83916 (P83916 whole entry, looked up): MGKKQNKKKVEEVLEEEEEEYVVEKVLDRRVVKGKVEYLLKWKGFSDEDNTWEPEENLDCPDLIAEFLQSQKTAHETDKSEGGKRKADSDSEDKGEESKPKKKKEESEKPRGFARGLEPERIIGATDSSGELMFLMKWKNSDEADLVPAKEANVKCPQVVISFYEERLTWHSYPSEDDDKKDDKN

Compound	Potency	activity change, negative = inhibition
COc1ccc(/C=N/c2oc(-c3ccccc3)cc2C#N)cc1OC	inconclusive: 50.1 µM [inhibitor, partial curve, poor fit]	–
COc1ccc(NC(=O)C2CCCCN2N)cc1OCC(C)C (centres undefined)	inconclusive: 79.4 µM [inhibitor, single point]	–
COCCNC(=S)NNc1ccccc1[N+](=O)[O-]	inconclusive: 31.6 µM [inhibitor, full curve, poor fit]	–
CCOC(=O)c1c(NC(=O)COc2cccc(C)c2C)sc2c1CCCCC2	–	inactive: -10.6%
Cc1ccc(C(=O)N2CCCC(N3CCN(c4ccccc4C)CC3)C2)c(=O)[nH]1 (centres undefined)	inconclusive: 35.5 µM [inhibitor, full curve]	–
O=C(Nc1ccc(F)cc1F)c1noc2c1CCC2	inconclusive: 50.1 µM [inhibitor, partial curve]	–
Cc1ccccc1-n1sc2cc(F)ccc2c1=O	active: 15.8 µM	–
C[C@]12CCC3C(CC=C4C[C@@H](O)CC[C@@]43C)C1CCC2[C@]1(C)CCC(=O)O1 (some centres undefined)	inconclusive: 79.4 µM [inhibitor, single point]	–
CCC(=O)Nc1nc(=S)ss1	inconclusive: 35.5 µM [inhibitor, partial curve]	–
Nc1ccc(C(CC(=O)O)n2cccc2)cc1 (centres undefined)	inconclusive: 89.1 µM [inhibitor, single point]	–
O=C(N/N=C/c1ccco1)C1CC1c1ccccc1 (centres undefined)	inconclusive: 70.8 µM [inhibitor, partial curve]	–
O=C(CN1CCCCCCC1)N/N=C/c1ccc([N+](=O)[O-])o1	inconclusive: 31.6 µM [inhibitor, partial curve]	–
CCc1cc(Cl)c(OC)c(C(=O)NC[C@@H]2CCCN2CC)c1O	inactive	–
COc1cccc(CC(=O)OCC(=O)c2cc(OC)c(OC)c(OC)c2)c1	–	inactive: 35.5%
CCOc1cc(C2Sc3ccccc3NC3=C2C(=O)c2ccccc23)ccc1O (centres undefined)	inconclusive: 20 µM [inhibitor, full curve, poor fit]	–
c1ccc(N=Nc2ccc3cccccc2-3)cc1	active: 3.98 µM	–
O=C1/C(=C2\C(=O)N(Cc3ccc(F)cc3)c3ccccc32)SC(=S)N1CCS(=O)(=O)O	inconclusive: 12.6 µM [inhibitor, full curve, poor fit]	–
CCOc1ccc(C2N(c3cc(C)on3)C(=O)C3CCCN32)cc1OC (centres undefined)	inconclusive: 39.8 µM [inhibitor, single point]	–
CCc1ccc2nc(SCC(=O)N3CC(=O)Nc4ccccc43)c(C#N)cc2c1	inconclusive: 35.5 µM [inhibitor, partial curve]	–
COc1ccc(OC)c(CN2CCN(Cc3cc(OC)c(OC)c(OC)c3)CC2)c1	inconclusive: 28.2 µM [inhibitor, partial curve]	–
CN(CCO)CCC(=O)NC1(C)CS(=O)(=O)CC1S(=O)(=O)O (centres undefined)	–	inactive: 14.2%
CC(=O)Nc1ccc(Nc2ncnc3c2c(-c2ccccc2)cn3-c2ccc(C)c(Cl)c2)cc1	–	inactive: -2.15%

Compound	Potency	activity change, negative = inhibition
CN1CN(C)c2cccc3cccc1c23	inconclusive: 12.6 µM [inhibitor, full curve]	–
O=C(/C(=N/N=C/c1ccc(O)c(O)c1O)c1ccccc1)c1ccccc1	inconclusive: 50.1 µM [inhibitor, partial curve, poor fit]	–
COc1cc(CN2CCC(C(=O)N3CCCC(C)C3)CC2)cc(Br)c1O (centres undefined)	inconclusive: 7.08 µM [inhibitor, full curve]	–
CCN(CC)C(=O)CSc1nc2ccsc2c(=O)n1CCCC(=O)NCCc1ccc(S(N)(=O)=O)cc1	inconclusive: 6.31 µM [inhibitor, full curve]	–
c1ccc(COc2ccc(OCCCCN3CCCC3)cc2)cc1	inconclusive: 44.7 µM [inhibitor, partial curve, poor fit]	–
Cc1ccc(OCc2nc(C#N)c(N3CCCC3)o2)cc1	inconclusive: 11.2 µM [inhibitor, partial curve, poor fit]	–
CCOC(=O)c1c(NC(=O)CN2C(=O)NC3(CCCCC3C)C2=O)sc(C(=O)N(C)C)c1C (centres undefined)	–	inactive: 20.5%
Cc1cccc(N2C(=O)C=CC2=O)c1	inconclusive: 20 µM [inhibitor, single point]	–
CCc1nnc(NC(=O)C2CC(=O)N(CCc3ccccc3)C2)s1 (centres undefined)	inconclusive: 39.8 µM [inhibitor, single point]	–
CCOc1ccc(N=Nc2c(=O)[nH]n3c(C)cc(C)nc23)cc1	inconclusive: 70.8 µM [inhibitor, partial curve, poor fit]	–
O=C(Nc1ccc2nc(SCCOc3ccccc3)sc2c1)c1ccc2c(c1)OCO2	–	inactive: 37.3%
Cc1occc1C(=O)Nc1ccc(S(N)(=O)=O)cc1	inconclusive: 7.94 µM [inhibitor, full curve]	–
O=S(=O)(Nc1ccccc1N1CCCCC1)c1ccccc1	–	inactive: 81.6%
CCC(C)(C)NC(=O)CN(Cc1ccc(OC)cc1)C(=O)CCC(=O)Nc1nccs1	inconclusive: 89.1 µM [inhibitor, single point]	–
COc1ccc(N2CCN(CC(=O)Nc3nc(C)cs3)CC2)cc1	active: 39.8 µM	–
Cc1ccc(NC(=O)N/C=C/c2ccco2)cc1	–	inactive: -11%
CCCc1cc(CNC(=O)C2CCC(=O)N(Cc3ccccc3OC)C2)on1 (centres undefined)	–	inactive: 47.5%
Cc1cccc(NC(=O)/C(=C\c2ccco2)NC(=O)c2cccs2)c1	inconclusive: 79.4 µM [inhibitor, partial curve]	–
COC(=O)C1=C(C(=O)OC)[C@@H]2N(C)c3ccc(OC)cc3[C@@]23C[C@@H](C(=O)OC)N(C(=O)c2cccs2)C3=N1	inconclusive: 44.7 µM [inhibitor, partial curve, poor fit]	–
O=C(Nc1ccc2nc3n(c(=O)c2c1)CCCCC3)C(=O)N1CCN(c2ccc(F)cc2)CC1	inconclusive: 15.8 µM [inhibitor, full curve]	–
COc1cccc(CN2CCNC(=O)C2CC(=O)NC2CCOCC2)c1OC (centres undefined)	–	inactive: 37.9%
O=C1NN(c2ccc(Br)cc2)C(=O)/C1=C\c1ccc(O)cc1O	inconclusive: 35.5 µM [inhibitor, full curve]	–

From PubChem BioAssay AID540317 (National Center for Advancing Translational Sciences (NCATS), 2011)
